Assay results as given in PubChem BioAssay AID624417 (National Center for Advancing Translational Sciences (NCATS), 2012).
Screen size: about 410,000 compounds; about 6,400 (1.6%) were called active. Inconclusive means that the source gave no clear call. Such entries were picked first, then a sample of the others. Calls come from the whole dose curve; as a rule, active = well fitted inhibition curve with a large enough effect; inconclusive = small, poorly fitted or top-dose-only effect; inactive = no such curve, though single readings can be large or run the other way. No potency is given beside an inconclusive call; the fits are too rough.

Biological target: Glucagon-like peptide 1 receptor (Homo sapiens) (UniProt P43220)
Experiment: qHTS of GLP-1 Receptor Inverse Agonists (Inhibition Mode); note: nearly all actives have a fitted effect of over 55% in size
Settings: HEK293 GLP-1R CRE-luciferase, luminescence, 24 h, GLP-1R form is constitutively active; activity change, negative = inhibition: at 38.3 µM (top of the series) unless noted
Method in brief: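 Using stably transfected HEK293 (constitutively active GLP-1R, cAMP-luciferase reporter), compounds were incubated 24 hr and luciferase measured by luminescence.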
% is set by controls: 0 for no effect and ±100 for the full control effect; potency is the fitted concentration of half-maximal effect; tags give direction and shape of the fitted curve.

UniProt P43220, sequence (P43220 whole entry, looked up): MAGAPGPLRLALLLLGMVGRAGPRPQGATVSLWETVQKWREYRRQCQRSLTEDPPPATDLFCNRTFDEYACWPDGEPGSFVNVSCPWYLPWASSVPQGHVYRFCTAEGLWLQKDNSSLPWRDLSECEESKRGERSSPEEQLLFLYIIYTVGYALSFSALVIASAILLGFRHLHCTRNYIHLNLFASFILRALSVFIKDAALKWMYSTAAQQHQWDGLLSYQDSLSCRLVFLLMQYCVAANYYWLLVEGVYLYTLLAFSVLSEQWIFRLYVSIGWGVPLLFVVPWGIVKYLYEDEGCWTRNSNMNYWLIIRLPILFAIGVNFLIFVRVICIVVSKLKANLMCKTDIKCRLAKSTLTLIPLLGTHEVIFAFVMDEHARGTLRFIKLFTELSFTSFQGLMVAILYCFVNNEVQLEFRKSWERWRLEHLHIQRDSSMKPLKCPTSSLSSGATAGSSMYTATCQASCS

SMILES | Potency | activity change, negative = inhibition
O=C(NC1CC1)c1c[nH]c2ccc(S(=O)(=O)Nc3cccc(C(F)(F)F)c3)cc2c1=O | inconclusive [inhibitor, single point] | 
O=C(NC1CCCC1)C1C(c2ccc(C(F)(F)F)cc2)=Nc2ccccc2N1C(=O)c1cccc(C(F)(F)F)c1 (configuration not stated) | inconclusive [inhibitor, partial curve] | 
COc1cc(S(=O)(=O)N2CCN(c3ccccc3F)CC2)c(OC)cc1Cl | inconclusive [inhibitor, single point] | 
CSc1nsc(SC)c1NC(=O)Nc1ccccc1C |  | inactive: 28.6%
COc1ccc(CN2CCCN(C)CC2)c(OC)c1C | inconclusive [inhibitor, single point] | 
COc1cccc(CNC(=O)CCCN2C(=O)CCn3nc(-c4cccn4C)cc32)c1 |  | inactive: -0.942%
Cc1ccc(S(=O)(=O)N(CC(=O)Nc2cccc([N+](=O)[O-])c2)C2CCCCC2)cc1 | active: 11.2 µM | 
O=C(CNc1ccc2ccccc2c1)N/N=C/c1ccncc1 | inconclusive [inhibitor, partial curve, poor fit] | 
Cc1nc(-c2cccc(NC(=O)c3ccc(-n4cccn4)cc3)c2)cs1 | inconclusive [inhibitor, single point] | 
Cc1ccc(SCC(=O)Nc2ccc(F)cc2[N+](=O)[O-])cc1C | inconclusive [inhibitor, single point] | 
COc1cc(CNCCc2ccc(S(N)(=O)=O)cc2)ccc1OCc1ccc(Cl)cc1 | inconclusive [inhibitor, single point] | 
COc1cccc(C(=O)N2CCc3c([nH]c4ccccc34)C2c2ccc(SC)cc2)c1 (configuration not stated) | active: 7.94 µM | 
Cc1ccc(S(=O)(=O)N/N=C\c2ccccc2OCc2ccccc2)cc1 | inconclusive [inhibitor, single point] | 
O=C(Cn1cc[n+](Cc2ccccc2)c1)c1ccc([N+](=O)[O-])cc1 | inconclusive [inhibitor, single point] | 
COc1ccccc1NC(=O)Nc1nc(CC(=O)Nc2ccc(F)cc2)cs1 | inconclusive [inhibitor, full curve] | 
CC12CCC(C/C1=N\N=C1\NC(=O)/C(=C\c3ccc(Cl)cc3)S1)C2(C)C (configuration not stated) | inconclusive [inhibitor, partial curve] | 
Cc1c(Cl)cccc1NC(=S)N1CCCN(Cc2ccc(F)cc2)C1 | inconclusive [inhibitor, partial curve, poor fit] | 
O=C(COC(=O)c1cc2ccccc2oc1=O)Nc1cccc(S(=O)(=O)N2CCCCCC2)c1 |  | inactive: 4.02%
CC1(C)Cc2cccc(OCC(=O)N3CCN(c4ccccc4Cl)CC3)c2O1 | inconclusive [inhibitor, partial curve, poor fit] | 
O=Cc1ccc(OCc2ccc3ccccc3c2)cc1 | inconclusive [inhibitor, single point] | 
O=c1c2ccccc2ncn1-c1ccc([N+](=O)[O-])cc1[N+](=O)[O-] | active: 5.62 µM | 

SMILES | Potency | activity change, negative = inhibition
Cc1csc(SCC(=O)NC23CC4CC(CC(C4)C2)C3)n1 | inconclusive [inhibitor, partial curve, poor fit] | 
COc1ccc(CCNC(=O)CCc2c(C)nc3cc(-c4ccccc4OC)nn3c2C)c(OC)c1 | inconclusive [inhibitor, single point] | 
COc1ccccc1NC(=O)CSc1nnc2c3ccccc3n(C(C)C)c2n1 | inconclusive [inhibitor, partial curve, poor fit] | 
Oc1ccc(C[C@H]2CNC(=S)N2CC2CCCN2C[C@H](Cc2ccc(O)cc2)N2C[C@H](Cc3ccccc3)N(CCc3ccccc3)C2=S)cc1 (some centres not stated) | inconclusive [inhibitor, partial curve, poor fit] | 
CNc1nnc(-c2ccc(N(C)C)cc2)s1 | inconclusive [inhibitor, partial curve, poor fit] | 
CCCOc1ccc(C(=O)CCN2CCN(C(=O)OCC)CC2)cc1 | inconclusive [inhibitor, single point] | 
CC(C)CC(C(=O)NC1CCCC1)N(Cc1cccs1)C(=O)c1snc(C(N)=O)c1N (configuration not stated) | inconclusive [inhibitor, single point] | 
Cn1c(SCc2ccc(F)cc2)nnc1-c1cccs1 |  | inactive: -15%
O=C(O)c1cc2nc(C3CC3)cc(C(F)(F)F)n2n1 |  | inactive: 5.49%
COC(=O)c1ccccc1NC(=O)C1CC(c2ccccc2O)=NO1 (configuration not stated) |  | inactive: 0.213%
CNC(=O)C1CCC(Cn2c(=O)c3sccc3n(CC(=O)NCc3cccc(OC)c3)c2=O)CC1 (configuration not stated) |  | inactive: 9.8%
O=C(Nc1ccc(F)c(Cl)c1)C1Cc2c(-c3ccco3)ccnc2O1 (configuration not stated) |  | inactive: -12.5%
CC1CCN(c2cc(N3CCOCC3)c([N+](=O)[O-])cc2F)CC1 | inconclusive [inhibitor, partial curve] | 
COc1ccc(NC(=O)C2(C)Cc3c(-c4cccc(C(F)(F)F)c4)ccnc3O2)cc1OC (configuration not stated) | inconclusive [inhibitor, single point] | 
Cc1ccc(Cn2c(C(C)Nc3nc(-c4ccc(F)cc4)cs3)nc3cc(C(=O)NCCCO)ccc32)cc1 (configuration not stated) |  | inactive: -28.9%
Cc1ccc(OCC(=O)Nc2ccc(S(=O)(=O)Nc3ncccn3)cc2)c(C(C)(C)C)c1 | inconclusive [inhibitor, single point] | 
COc1ccc(CNC(=O)c2ccc(Cn3c(=O)c4cccn4c4cccnc43)cc2)cc1OC |  | inactive: 16.6%
Cc1ccc(-c2cc(C(=O)N3CCN(c4ccccc4O)CC3)c3ccccc3n2)o1 | inconclusive [inhibitor, single point] | 
O=C(O)c1ccccc1SCc1cn2cc(Br)ccc2n1 | inconclusive [inhibitor, single point] | 
CCC(=O)Nc1nc2ccccc2n1Cc1ccc(C)cc1 | inconclusive [inhibitor, partial curve] | 
CCOc1ccccc1CNC(=O)c1ccc2nc(Cc3ccc(OC)cc3)oc2c1 | inconclusive [inhibitor, single point] | 
